For the test, the target named is T1, human CXCR3 (human, UniProt P49682 1-368).
T1 construct: On 300.19 cells transfected to express CXCR3; also called receptor for IP-10
T1 sequence: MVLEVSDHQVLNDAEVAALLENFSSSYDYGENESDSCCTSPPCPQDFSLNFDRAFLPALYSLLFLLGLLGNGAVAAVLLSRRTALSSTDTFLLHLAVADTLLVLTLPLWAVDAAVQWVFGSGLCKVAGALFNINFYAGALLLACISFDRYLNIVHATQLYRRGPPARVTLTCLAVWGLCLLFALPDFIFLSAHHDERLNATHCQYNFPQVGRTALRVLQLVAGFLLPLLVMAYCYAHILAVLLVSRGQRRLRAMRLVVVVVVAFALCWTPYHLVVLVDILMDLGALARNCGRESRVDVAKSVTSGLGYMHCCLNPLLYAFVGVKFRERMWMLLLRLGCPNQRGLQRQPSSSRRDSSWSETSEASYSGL
The test can be described thus: Scatchard analysis, 125I-IP-10 binding to 300.19 cells transfected to express CXCR3. As to the method: The cells were grown in RPMI media containing 10% FCS and G418 selection. Prior to use, the cells were washed twice with Hank's Balanced Salt Solution (HBSS) at 4° C. and adjusted to 4×10⁷ cells/ml. Glass fiber plates (Millipore MultiScreen®, Cat. #MAFBNOB50) were blocked with 200 μl of a 0.1% polyethyleneimine solution one day prior to the experiment. On the day of the study, the blocking buffer was aspirated by using a Millipore manifold. The plates were washed three times with 200 μl of binding buffer (50 mM HEPES, pH 7.2, 1 mM CaCl₂, 5 mM MgCl₂, 0.5% BSA). […] The plates were incubated on a plate shaker for 60 minutes at room temperature and washed three times with wash buffer (10 mM HEPES, pH 7.2, 0.5 M NaCl, 0.5% BSA) at a volume of 200 μl per wash. The plates were dried, 25 μl of scintillant was added and the plates were counted on a Wallac Microbeta Counter. Data were analyzed using Prism software and a KD was calculated.

B1: human IP-10 (interferon gamma inducible protein 10) (ligand)
chain: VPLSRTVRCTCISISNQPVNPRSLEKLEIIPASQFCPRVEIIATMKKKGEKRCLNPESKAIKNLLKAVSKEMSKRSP
notes: Native IP-10 from THP-1 supernatant and from MS patient CSF in the migration assays is also put under this molecule; also called CXCL10; rhIP-10
As to B1, binding was put at a Kd of 0.231 nM.
